About 2,200 (0.71%) of roughly 310,000 compounds showed an effect of 50% or more. Effects have a minus sign here. This is one part of the list.

The target of this test is human ether-à-go-go-related gene (hERG) potassium channel (human, UniProt Q12809). The test is described as follows: primary screen, population patch clamp on CHO cells stably expressing hERG.
Sequence of human ether-à-go-go-related gene (hERG) potassium channel (Q12809 whole entry, looked up): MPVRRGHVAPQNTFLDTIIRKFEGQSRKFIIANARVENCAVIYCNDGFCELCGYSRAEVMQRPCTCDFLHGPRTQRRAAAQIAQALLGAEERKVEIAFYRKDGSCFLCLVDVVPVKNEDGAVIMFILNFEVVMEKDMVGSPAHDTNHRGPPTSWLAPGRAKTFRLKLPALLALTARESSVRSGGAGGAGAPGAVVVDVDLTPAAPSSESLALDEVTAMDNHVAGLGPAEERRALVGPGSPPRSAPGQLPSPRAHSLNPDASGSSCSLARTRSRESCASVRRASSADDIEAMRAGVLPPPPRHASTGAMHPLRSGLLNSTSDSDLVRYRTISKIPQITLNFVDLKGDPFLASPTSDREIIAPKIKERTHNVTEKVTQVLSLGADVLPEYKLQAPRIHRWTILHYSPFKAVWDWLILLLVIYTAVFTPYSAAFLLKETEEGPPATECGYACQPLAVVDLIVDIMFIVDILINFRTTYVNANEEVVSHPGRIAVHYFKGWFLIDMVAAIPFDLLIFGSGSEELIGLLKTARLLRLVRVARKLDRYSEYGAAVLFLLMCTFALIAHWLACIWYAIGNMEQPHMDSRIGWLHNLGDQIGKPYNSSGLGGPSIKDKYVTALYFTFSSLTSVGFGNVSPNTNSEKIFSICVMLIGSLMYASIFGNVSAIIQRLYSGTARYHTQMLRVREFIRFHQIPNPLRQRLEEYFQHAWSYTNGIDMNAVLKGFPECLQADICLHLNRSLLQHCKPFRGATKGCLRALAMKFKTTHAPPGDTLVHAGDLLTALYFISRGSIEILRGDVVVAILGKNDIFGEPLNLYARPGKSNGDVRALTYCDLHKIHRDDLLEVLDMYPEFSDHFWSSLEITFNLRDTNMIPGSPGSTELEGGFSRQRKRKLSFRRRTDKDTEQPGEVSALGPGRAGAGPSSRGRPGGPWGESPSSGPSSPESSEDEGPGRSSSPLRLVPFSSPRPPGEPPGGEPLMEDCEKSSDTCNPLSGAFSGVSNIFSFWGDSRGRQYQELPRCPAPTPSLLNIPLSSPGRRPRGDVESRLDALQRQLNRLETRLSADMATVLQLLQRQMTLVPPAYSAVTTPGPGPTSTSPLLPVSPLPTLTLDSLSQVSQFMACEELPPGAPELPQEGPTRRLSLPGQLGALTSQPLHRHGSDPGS
On to `CCOc1cccc(CNCCNC(=O)c2nonc2N)c1.Cl`, for which the “hERG current change (%, negative = inhibition) at 1uM” value was -3.46%.
Next, `CCCn1c(SCC(=O)Nc2ccccc2N2CCOCC2)nc2c1c(=O)n(C)c(=O)n2C`: 0.825%.
Consider `COc1ccc(N(C(=O)Cn2nnc3ccccc32)C(C(=O)NCc2ccco2)c2ccncc2)cc1` (stereo not drawn), for which the “hERG current change (%, negative = inhibition) at 1uM” value is 6.1%.
The same measure for `O=C(NC1CCCC1)C1CCCN(C(=O)Nc2ccccc2)C1` (stereo not drawn): 12.4%.
The same measure for `Cc1cc(=O)oc2cc(OCC(=O)Nc3cccc(S(=O)(=O)N(C)C)c3)ccc12`: 9.74%; for `Cl.FC(F)(F)c1cccc(C2NCc3ccccc3-n3cccc32)c1` (stereo not drawn): 13.7%.
Next, `COc1ccc(OCC(=O)NNC(=O)c2ccccc2OCc2c(C)noc2C)cc1`: 4.76%; `COc1ccccc1C/C(N)=N/OC(=O)c1cccc([N+](=O)[O-])c1C`: 1.57%; `CN1C(=O)/C(=C/c2ccc(O)c([N+](=O)[O-])c2)NC1=S`: 12.1%.
`COc1c(F)c(F)c(C(=O)Nc2ccc(NC(=O)Cc3ccccc3)cc2)c(F)c1F`: the “hERG current change (%, negative = inhibition) at 1uM” value came to 25.2%.
Regarding `CP(=O)(O)CN1CCCCC1`, the “hERG current change (%, negative = inhibition) at 1uM” value came out at 4.45%.
The same measure for `CCOC(=O)Cc1csc(NC(=O)/C=C\c2ccccc2)n1`: 3.99%; for `CN(CC(=O)Nc1ccccc1Cl)C1CCS(=O)(=O)C1` (stereo not drawn): -0.783%.
Next, `Cn1c(=O)c2cn3c(c2n(C)c1=O)C(c1ccccc1)CC(c1ccccc1)=N3` (stereo not drawn): 3.12%.
Next, `COC(=O)C1(C(F)(F)F)C2C=CC(C2)N1S(=O)(=O)c1ccc(C)cc1` (stereo not drawn): 15.3%; `CCOc1ccc(N(CC(=O)NCCSCc2ccco2)S(=O)(=O)c2ccc(F)cc2)cc1`: 1.39%; `CC(C)OC(=O)c1cccc2c1C(=O)c1ccccc1-2`: 17.4%.
On to `COc1ccc(N2C(=O)[C@@H]3[C@H](C2=O)[C@H](C(=O)c2ccc(OC(C)=O)cc2)N2N=CC=C[C@@H]32)cc1`, for which the “hERG current change (%, negative = inhibition) at 1uM” value came out at 7.92%.
As for `CCOC(=O)c1[nH]c2ccc(F)cc2c1NC(=O)C(C)N1CCc2cc(OC)c(OC)cc2C1` (stereo not drawn), the “hERG current change (%, negative = inhibition) at 1uM” value was 10.3%.
For `COc1ccc(C(C)=O)cc1COc1ccc(-n2cnnn2)cc1`, the “hERG current change (%, negative = inhibition) at 1uM” value turned out to be 0.467%.
For `Cc1ccc(S(=O)(=O)NC(=NC2CCCCC2)c2ccc(Cl)cc2)cc1`, the “hERG current change (%, negative = inhibition) at 1uM” value worked out at 15%.
The same measure for `CCn1c(Cc2ccc(OC)cc2)nc2ccccc21`: 8.49%; for `COCCN(C(=O)c1ccc2ccccc2c1)c1c(N)n(Cc2ccccc2)c(=O)[nH]c1=O`: 1.9%.
Next, `CN(CC(=O)NC1CCCCC1)S(=O)(=O)c1cccc2nsnc12`: 11%; `CCCCOc1ncnc2c1[nH]c1ccc(C)cc12`: 2.78%.
Next, `O=C(c1ccco1)N1CCN(c2cc(N3CCOCC3)c(F)cc2[N+](=O)[O-])CC1`: -12.4%; `O=C(c1cccnc1)N1CCN(c2ccccc2Cl)CC1`: 7.73%.
On to `CC(C)(C)CNc1cc(N2CCOCC2)ccc1[N+](=O)[O-]`, for which the “hERG current change (%, negative = inhibition) at 1uM” value was found to be 9.13%.
Next, `COc1ccc(Nc2nc(N)c([N+](=O)[O-])c(NCCO)n2)cc1`: 15.2%; `Cc1cc(=O)oc2c3c(cc(OCC(=O)NCc4ccccn4)c12)OC(C)(C)CC3`: 3.22%; `CC(C)C(NC(=O)c1cccs1)C(=O)NC1=NCCS1` (stereo not drawn): 3.38%.
The same measure for `COc1ccc(-c2[nH]ncc2CN2CCCC2c2nonc2C)c(F)c1` (stereo not drawn): 8.27%.
Next, `CC1(C)CC(=O)C2=C(C1)N(Cc1ccccc1)C(=O)C2(NC(=O)C(C)(C)C)C(F)(F)F` (stereo not drawn): -9.33%.
In the case of `COc1cc(OC)cc(C(=O)N2CC(=O)Nc3ccccc32)c1`, the “hERG current change (%, negative = inhibition) at 1uM” value is 14%.
Next, `CC(=O)c1ccc(N2CCN(C(=O)COc3ccc(F)cc3)CC2)c(F)c1`: -62.7%; `Cc1ccc2cccc(O)c2[n+]1[O-]`: 6.61%; `Cc1csc(=O)n1CCC(=O)OCC(=O)NNC(=O)c1ccccc1`: 2.55%.
Next, `COc1ccc(S(=O)(=O)Nc2c(C)n(C)n(-c3ccccc3)c2=O)cc1Br`: 7.77%.
The same measure for `CS(=O)(=O)N(Cc1ccc(C(=O)N2CCc3ccccc3C2)cc1)c1ccccc1`: 12.3%; for `CC(C)OC(=O)CC1C(=O)NCCN1C(=S)NC(=O)c1ccc(F)cc1` (stereo not drawn): 1.09%; for `S=C1Nc2ccccc2Sc2ccccc21`: 19.3%.
As to `Cn1ncc(Br)c1C(=O)N/N=C/c1cccc(OC2CSC2)c1`, the “hERG current change (%, negative = inhibition) at 1uM” value is -9.02%.
The same measure for `Cc1ccc2nsnc2c1NS(=O)(=O)c1c(C)ccc2nsnc12`: 9.84%; for `COC(=O)c1[nH]c2cc(OC)ccc2c1NC(=O)c1ccc2c(c1)OCO2`: 4.52%; for `Cc1ccc(N2C(=O)c3ccc(C(=O)Nc4cccnc4)cc3C2=O)c(C)c1`: 10.3%.
Next, `COC(=O)CCCC1=CC2=C(c3ccccc3)C(=O)C(C)(OC(=O)C3CCCC3)C(=O)C2=CN1c1ccccc1` (stereo not drawn): 12.8%.
In the case of `NC(=O)CC(NC(=O)Cc1cccc2ccccc12)c1ccc(NC2CCC2)c([N+](=O)[O-])c1` (stereo not drawn), the “hERG current change (%, negative = inhibition) at 1uM” value was -2.29%.
Next, `Cc1nn(-c2ccccc2)c(N2CCCC2)c1/C=N/NC(=S)Nc1ccccc1C(F)(F)F`: 11.7%.
Next, `CCCCn1c(CN(Cc2ccccc2)Cc2ccccc2)nc2c1c(=O)n(C)c(=O)n2C`: 1.52%.
Next, `Cc1cccc(CS(=O)(=O)Cc2ccc(C(=O)NCCCN3CCOCC3)o2)c1`: -1.51%; `O=C(N[C@@H]1C[C@H]2CC[C@@H]1C2)c1ccco1`: 14.1%; `O=C(COC(=O)c1cc(S(=O)(=O)N2CCCC2)ccc1O)Nc1ccc(SC(F)F)cc1`: -19.7%.
As to `CCn1c(C)nc2cc(C(=O)N3N=C(CCOC)CC3(O)C(F)(F)F)ccc21` (stereo not drawn), the “hERG current change (%, negative = inhibition) at 1uM” value was 8.06%.
Next, `C=C[C@]1(C)C[C@@H](OC(=O)CSCCN(CC)CC)[C@]2(C)C(C)CC[C@]3(CCC(=O)[C@H]32)[C@@H](C)[C@@H]1O.O=C(O)/C=C/C(=O)O` (stereo partly drawn): -27.3%.

Source of the values: article PMC4336329 (PLoS ONE, 2015).
